Results are given in words; binding and its absence hold for the method and conditions named. Some entries that bind do so weakly or less than the wild type. For some assays here: Tags and fused reporters may be left off the sequences shown.

The target of assay [1] is T1, 7BP: fusion protein comprising the extracellular domain of RXFP1 and the transmembrane domain of CD8, on cells (UniProt Q9HBX9).
T1 sequence (looked up): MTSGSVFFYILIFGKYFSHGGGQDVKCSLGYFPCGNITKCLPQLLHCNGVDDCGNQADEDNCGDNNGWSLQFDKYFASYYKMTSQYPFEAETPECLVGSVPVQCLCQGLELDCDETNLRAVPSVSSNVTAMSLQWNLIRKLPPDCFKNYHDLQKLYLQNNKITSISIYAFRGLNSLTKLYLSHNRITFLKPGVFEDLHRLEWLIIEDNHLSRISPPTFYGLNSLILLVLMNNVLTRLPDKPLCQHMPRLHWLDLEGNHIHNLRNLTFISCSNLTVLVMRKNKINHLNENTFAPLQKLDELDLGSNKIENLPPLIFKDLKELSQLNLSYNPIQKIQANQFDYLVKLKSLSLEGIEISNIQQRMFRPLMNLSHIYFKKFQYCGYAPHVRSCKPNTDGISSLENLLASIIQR
The assay is described as follows: Eu-H2 relaxin competition on 7BP cells.

In assay [2] the target is T2, RXFP1 (LGR7) receptor, on stably transfected HEK-293T cells (UniProt Q9HBX9).
T2 sequence (looked up): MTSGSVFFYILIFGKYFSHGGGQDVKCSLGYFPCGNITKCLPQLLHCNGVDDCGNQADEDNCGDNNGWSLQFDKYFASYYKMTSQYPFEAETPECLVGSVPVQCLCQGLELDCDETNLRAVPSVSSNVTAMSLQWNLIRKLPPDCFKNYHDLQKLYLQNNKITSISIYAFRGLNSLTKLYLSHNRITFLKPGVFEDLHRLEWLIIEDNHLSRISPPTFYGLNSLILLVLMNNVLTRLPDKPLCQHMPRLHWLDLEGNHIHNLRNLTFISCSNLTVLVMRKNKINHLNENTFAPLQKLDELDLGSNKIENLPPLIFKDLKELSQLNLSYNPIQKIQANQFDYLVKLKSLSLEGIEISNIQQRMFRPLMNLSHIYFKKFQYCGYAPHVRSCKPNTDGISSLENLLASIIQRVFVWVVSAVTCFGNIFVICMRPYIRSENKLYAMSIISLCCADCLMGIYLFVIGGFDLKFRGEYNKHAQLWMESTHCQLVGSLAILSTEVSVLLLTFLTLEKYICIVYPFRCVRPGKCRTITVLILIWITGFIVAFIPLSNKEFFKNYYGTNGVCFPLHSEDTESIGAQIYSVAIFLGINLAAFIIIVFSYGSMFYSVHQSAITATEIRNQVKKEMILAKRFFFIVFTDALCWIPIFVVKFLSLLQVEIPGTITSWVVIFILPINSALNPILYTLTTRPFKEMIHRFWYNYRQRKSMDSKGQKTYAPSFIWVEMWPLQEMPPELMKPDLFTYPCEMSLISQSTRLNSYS
The assay is described as follows: Eu-H2 relaxin competition, whole HEK-293T cells stably expressing RXFP1.

As for VIKLSGAELVAAQAAISGMSTWSKRSL (N-terminal acetyl (Ac-); C-terminal amide (-NH2)) [R13/17A I20A (AcB7-33 C11.23S)], the binding entry in assay [1] is listed as “binds”.
Regarding VIKLSGRELVRAQIAISGMSTWSKRSL (C-terminal amide (-NH2)) [Modified B7-33 (B7-33 C11.23S)], the binding entry in assay [1] and in assay [2] was “binds” in each case.
For VIKLSGAELVRAQIAISGMSTWSKRSL (N-terminal acetyl (Ac-); C-terminal amide (-NH2)) [R13A (AcB7-33 C11.23S)], the binding result in assay [1] is on record as “binds”.
VIKLSGRELVAAQIAISGMSTWSKRSL (N-terminal acetyl (Ac-); C-terminal amide (-NH2)) [R17A (AcB7-33 C11.23S)]: the binding entry in assay [1] was “binds”.
With DSWMEEVIKLSGRELVRAQIAISGMSTWS (C-terminal amide (-NH2)) [B1-29 C11.23S], the binding entry in assay [2] was “no binding (tested: pKi <5 (log M))”.
Turning to VIKLSGRELVRAQAAISGMSTWSKRSL (N-terminal acetyl (Ac-); C-terminal amide (-NH2)) [I20A (AcB7-33 C11.23S)], the binding entry in assay [2] is given as “no binding (tested: pKi <5 (log M))”.
Still for that read-out and setting: the entry for VIKLSGRELVRAQIAISGMSTWS (C-terminal amide (-NH2)) [B7-29 C11.23S] is “no binding (tested: pKi <5 (log M))”.
On to VIKLSGRELVRAQIAISGMSTWSKRSL (N-terminal acetyl (Ac-); C-terminal amide (-NH2)) [AcB7-33 C11.23S], for which the binding entry in assay [1] was “binds”.
VIKLSGRELVKAQIAISGMSTWSKRSL (C-terminal amide (-NH2)) [B7-33 C11.23S R17K]: in assay [2], the binding entry is on record as “no binding (tested: pKi <5 (log M))”.
Take VIKLSGRELVRAQIAISGMSTWSKKKK (N-terminal acetyl (Ac-); C-terminal amide (-NH2)) [KKKK (AcB7-29 C11.23S)]: the binding entry in assay [1] is recorded as “binds”.

The values above are taken from US20170037106A1 (FLOREY INSTITUTE OF NEUROSCIENCE AND MENTAL HEALTH, published 2017).
